{"source": "the supplement of paper PMC9588766", "note": "Where a name gives a salt, the structure may show the parent alone. In all, about 1,900 compounds were measured (“cell viability of compound + 1 nM pemigatinib relative to pemigatinib-only (DMSO) wells”: median about 0.95, lowest 2% from about 0.22 on). The list shows a part of the results.", "data": [{"tested_on": "PDC-DUC18828", "experiment": "cell viability of compound + 1 nM pemigatinib relative to pemigatinib-only (DMSO) wells (fraction); PDC-DUC18828 is a patient-derived cholangiocarcinoma cell line; higher = less growth inhibition", "settings": "first compound 1 µM; pemigatinib concentration 1 nM; 72 h", "description": "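Selleck Bioactive library screen in the patient-derived FGFR2 fusion-positive ICC cell line PDC-DUC18828 (500 cells/well). Each compound was tested at 1 uM with 1 nM pemigatinib, in triplicate, for 72 h. Viability was read by CellTiter-Glo and normalised to plate DMSO controls. Value is the paper's averaged normalised viability.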", "values": [{"smiles": "Cn1cc(-c2ccc3c(c2)CCN3C(=O)Cc2cccc(C(F)(F)F)c2)c2c(N)ncnc21", "note": "+ CCN1C(=O)N(c2c(F)c(OC)cc(OC)c2F)Cc2cnc3[nH]c(CN4CCOCC4)cc3c21 [pemigatinib]", "cell viability": 0.948}, {"smiles": "Oc1cccc(-c2nc(N3CCOCC3)c3oc4ncccc4c3n2)c1", "note": "+ CCN1C(=O)N(c2c(F)c(OC)cc(OC)c2F)Cc2cnc3[nH]c(CN4CCOCC4)cc3c21 [pemigatinib]", "cell viability": 0.345}, {"smiles": "CN(C)CC/C=C1/c2ccccc2COc2ccc(CC(=O)O)cc21", "note": "[Olopatadine HCl] + CCN1C(=O)N(c2c(F)c(OC)cc(OC)c2F)Cc2cnc3[nH]c(CN4CCOCC4)cc3c21 [pemigatinib]", "cell viability": 0.954}, {"smiles": "Nc1ncnc2n[nH]c(Nc3ccc(F)cc3)c12", "note": "+ CCN1C(=O)N(c2c(F)c(OC)cc(OC)c2F)Cc2cnc3[nH]c(CN4CCOCC4)cc3c21 [pemigatinib]", "cell viability": 0.923}, {"smiles": "CC[C@H](C)C[C@H](C)CCCCCCCCC(=O)N[C@H]1C[C@@H](O)[C@@H](NCCN)NC(=O)[C@@H]2[C@@H](O)CCN2C(=O)[C@H]([C@H](O)CCN)NC(=O)[C@H]([C@H](O)[C@@H](O)c2ccc(O)cc2)NC(=O)[C@@H]2C[C@@H](O)CN2C(=O)[C@H]([C@@H](C)O)NC1=O", "note": "[Caspofungin Acetate] + CCN1C(=O)N(c2c(F)c(OC)cc(OC)c2F)Cc2cnc3[nH]c(CN4CCOCC4)cc3c21 [pemigatinib]", "cell viability": 0.862}, {"smiles": "CCn1cc(NC(=S)Nc2cc(Cl)ccc2OC)c(C(N)=O)n1", "note": "+ CCN1C(=O)N(c2c(F)c(OC)cc(OC)c2F)Cc2cnc3[nH]c(CN4CCOCC4)cc3c21 [pemigatinib]", "cell viability": 0.954}, {"smiles": "CN(C)Cc1ccc(S(=O)(=O)n2ccc(/C=C/C(=O)NO)c2)cc1", "note": "[Resminostat] + CCN1C(=O)N(c2c(F)c(OC)cc(OC)c2F)Cc2cnc3[nH]c(CN4CCOCC4)cc3c21 [pemigatinib]", "cell viability": 0.96}, {"smiles": "c1ccc(CN(CC2=NCCN2)c2ccccc2)cc1", "note": "[Antazoline HCl] + CCN1C(=O)N(c2c(F)c(OC)cc(OC)c2F)Cc2cnc3[nH]c(CN4CCOCC4)cc3c21 [pemigatinib]", "cell viability": 0.993}, {"smiles": "Cc1cc(OCc2nnc(SC3CCCC3)n2-c2cccnc2)ccc1-c1ccc(S(C)(=O)=O)cc1", "note": "+ CCN1C(=O)N(c2c(F)c(OC)cc(OC)c2F)Cc2cnc3[nH]c(CN4CCOCC4)cc3c21 [pemigatinib]", "cell viability": 0.792}, {"smiles": "CNC(=O)c1ccc(C)c(-n2c(C)cc(OCc3ccc(F)cc3F)c(Br)c2=O)c1", "note": "+ CCN1C(=O)N(c2c(F)c(OC)cc(OC)c2F)Cc2cnc3[nH]c(CN4CCOCC4)cc3c21 [pemigatinib]", "cell viability": 0.997}]}]}
